Several values for one entry are separate records, joined by “and”; a condition that tells them apart may be missing. Equal values may be shown once. Screen size: about 48,000 compounds; about 1,200 (2.5%) were called active. Not shown: some 2% with an inconclusive outcome.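 How the source made its calls: active means activation of at least 60% and not above a set upper limit (about 1 call in 100 departs from these limits); inconclusive means activation of 40% to 60%, or above that upper limit; inactive means activation under 40%.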 Some of the results follow.
target: Probable G-protein coupled receptor 32 (Homo sapiens) (UniProt O75388); experiment: qHTS for Agonists of Human Resolvin D1 Receptor DRV1; settings: CHO-K1 GPR32 beta-arrestin PathHunter luminescence, 90 min; at 76.9 µM; stronger effect = higher value; zero percent set by DMSO-only wells; further: 0% is about no effect
In short: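 Cells are plated overnight, treated with compounds in DMSO for 90 minutes at 37 °C, and developed with PathHunter detection reagent for 1 hour before luminescence is read; signal reflects beta-arrestin binding to GPR32 in engineered CHO-K1 cells.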

Sequence of UniProt O75388 (O75388 whole entry, looked up): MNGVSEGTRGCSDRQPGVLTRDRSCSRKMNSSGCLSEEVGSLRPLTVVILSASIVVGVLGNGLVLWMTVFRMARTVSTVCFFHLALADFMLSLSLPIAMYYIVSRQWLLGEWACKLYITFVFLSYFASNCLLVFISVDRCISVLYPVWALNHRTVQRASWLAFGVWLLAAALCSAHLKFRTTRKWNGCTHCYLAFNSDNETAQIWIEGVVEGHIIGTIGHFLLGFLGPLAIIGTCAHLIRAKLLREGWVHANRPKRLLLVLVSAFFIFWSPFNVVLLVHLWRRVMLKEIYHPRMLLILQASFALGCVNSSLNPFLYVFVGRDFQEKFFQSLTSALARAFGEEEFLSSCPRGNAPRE

| Structure (SMILES) | activation |
| --- | --- |
| COc1ccc(NC(=O)C2=C(C)Nc3nc(SCc4ccc(C)cc4C)nn3C2c2cccc(OC)c2OC)cc1 (stereo not given) | inactive: 11% |
| CCOc1ccc(CNC(=O)Cn2nc(C)c3nn(-c4ccc(Cl)cc4)c(C)c3c2=O)cc1 | inactive: -12.8% |
| COc1cc(-c2ccno2)ccc1S(=O)(=O)N1CCN(c2cccc(Cl)c2)CC1 | inactive: -4.34% |
| Cc1[nH]c(=O)[nH]c(=O)c1S(=O)(=O)Nc1cccc(Cl)c1C | inactive: -6.25% |
| COc1ccccc1NC(=O)c1sc2nc(-c3cc4cc(Cl)ccc4oc3=O)[nH]c(=O)c2c1C | inactive: 0.705% |
| Cc1ccc(CNC(=O)c2oc3ccc(S(=O)(=O)N4CCCC(C)C4)cc3c2C)cc1 (stereo not given) | inactive: 14.3% |
| Cc1oc2ncnc(N3CCCCC3)c2c1C(=O)NCC1CCN(Cc2ccccc2F)CC1 | inactive: -13.6% |
| COc1ccc(OC)c(NC(=O)Cn2nc3c(cc2=O)CCCC3)c1 | inactive: -2.94% |
| O=C(NCCN1CCOCC1)c1ccc(Cl)cc1 | inactive: 2.78% and inactive: -3.73% |
| CCc1ccc(NC(=O)CC2C(=O)N(c3cccc(C)c3)C(=O)N2Cc2cccc(OC)c2)cc1 (stereo not given) | inactive: -21.4% |
| COc1ccc(CCNS(=O)(=O)c2ccc3c(c2)c(=O)n(C)c(=O)n3C)cc1OC | inactive: -0.728% |
| Cc1ccc(NC(=O)CCCc2nnc3n(C)c(=O)c4sccc4n23)cc1C | inactive: 4.01% |
| Cc1ccc(NC(=O)c2nc(S(C)(=O)=O)ncc2N(Cc2cccc(F)c2)Cc2ccco2)cc1C | inactive: -17.9% |
| CCc1nn(CC(=O)NCc2ccco2)c(=O)c2cc3cc(F)ccc3n12 | inactive: -3.66% |
| NS(=O)(=O)c1ccc(NC(=O)c2cc(-c3cccs3)nc3ccccc23)cc1 | inactive: 1.82% |
| O=C(CN1C(=O)C2CCCCN2c2ccc(C(=O)N3CCCC3)cc21)NCc1ccc(F)cc1 (stereo not given) | inactive: -15.7% |
| COc1ccc(CNC(=O)C2CCCCN2S(=O)(=O)c2ccc(F)cc2)cc1 (stereo not given) | inactive: -4.2% |
| Cc1nc(N2CCOCC2)c2c(C(=O)N3CCN(c4cc(Cl)ccc4C)CC3)c(C)oc2n1 | inactive: -18.5% |
| CCN1CCC(N(Cc2ccc(F)cc2)C(=O)Nc2cc(C)ccc2C)CC1 | inactive: -3.63% |
| CCCNC(=O)CN1C(=O)COc2ccc(S(=O)(=O)N3CCCC3)cc21 | inactive: -16.2% |
| CCOc1ccccc1CNc1ncnc2onc(-c3ccc(F)cc3)c12 | inactive: -3.41% |
| CC1CCCCN1C(=O)CSc1nc2ccccc2nc1Cc1ccccc1 (stereo not given) | inactive: -4.95% |

| Structure (SMILES) | activation |
| --- | --- |
| COc1ccc(-n2cc(C(=O)NCCc3ccc(C)cc3)c3ccccc3c2=O)cc1 | inactive: -22.5% |
| O=C(Nc1ccc(S(=O)(=O)Nc2ncccn2)cc1)c1cccc(Cl)c1 | inactive: 43.3% |
| CCOc1ccc(N2C(=O)c3[nH]nc(-c4ccccc4)c3C2c2ccc(O)c(OC)c2)cc1 (stereo not given) | inactive: -9.41% |
| COC(=O)c1ccc(C2CC(=O)Nc3c2c(C)nn3-c2nc(C)cc(C)n2)cc1 (stereo not given) | inactive: -8.84% |
| O=C(Cn1ccc2cc(S(=O)(=O)N3CCCC3)ccc21)NCc1ccc(Cl)cc1 | inactive: -15.5% |
| CCN(CC)c1ccc(NC(=O)CN2CCN(S(=O)(=O)c3ccc(C(C)C)cc3)CC2)cc1 | inactive: -20.4% |
| Cc1cc(C)cc(NC(=O)CC(C)n2nc(C)cc2C)c1 (stereo not given) | inactive: -14.1% |
| COc1ccc(CNC(=O)c2ccc3c(c2)N=C(C)c2c(C)ccc(C)c2S3)cc1 | inactive: -19.8% |
| CCn1c(SC)nc2c([nH]c3ccccc32)c1=O | inactive: -13.9% |
| CCOC(=O)c1c(S(=O)(=O)N2CCC(C(=O)Nc3ccc(C)cn3)CC2)c(C)n(C)c1C | inactive: -3.6% |
| COc1cc(NC(=O)Cn2c(=O)n(Cc3ccccc3)c(=O)c3oc4ccccc4c32)cc(OC)c1 | inactive: -11.6% |
| COc1ccc(-c2noc(CC(=O)N(C)c3ccccc3F)n2)cc1 | inactive: -9.27% |
| O=C(Nc1ccc(F)cc1)C1CCN(c2nc3ccccc3nc2C(F)(F)F)CC1 | inactive: 4.99% |
| Cc1cc(-c2ccc(S(=O)(=O)Nc3ccccc3C)cc2)on1 | inactive: -5.5% |
| Cc1cc(O)c(C(c2ccc(F)cc2)N2CCN(c3ccccc3)CC2)c(=O)n1Cc1ccco1 (stereo not given) | inactive: -21.2% |
| CCCCN1C(=O)C(NC(=O)c2ccc(C(C)(C)C)cc2)(C(F)(F)F)C(C(=O)OC)=C1C (stereo not given) | inactive: -8.23% |
| COc1ccc(-c2nc(SCC(=O)NCc3nc4ccccc4n3C)n3[nH]c(=O)cc3n2)cc1 | inactive: -10.6% |
| Cc1ccc(NC(=O)CSc2nnc(C)s2)c(C)c1 | inactive: -2.86% |
| COc1ccc(NC(=O)C2CCN(c3nc4ccccc4[nH]3)CC2)cc1OC | inactive: 2.56% |
| COc1ccc(OC)c(NC(=O)Nc2cccc(OCc3cc(=O)n4cc(C)ccc4n3)c2)c1 | inactive: -7.64% |
| O=C(CSc1nc2c(c(=O)[nH]1)CCC2)Nc1cccc(O)c1 | inactive: -14.4% |
| CC(NC(=O)c1cccc(Nc2nc3ccccc3n3nnnc23)c1)c1ccccc1 (stereo not given) | inactive: 27.2% |

| Structure (SMILES) | activation |
| --- | --- |
| Cc1ccc(N2CCN(c3ncnc4onc(-c5ccc(F)cc5)c34)CC2)c(C)c1 | inactive: -9.06% |
| COc1ccc(-n2nnnc2C2CCN(S(=O)(=O)c3cc(Cl)ccc3OC)CC2)cc1 | inactive: -7.51% |
| COc1cc(NC(=O)c2c(C)nn(-c3ccc(F)cc3)c2-n2cccc2)cc(OC)c1 | active: 103% |
| CCn1c(=O)c2sccc2n2c(CCCC(=O)Nc3ccc(C)cc3)nnc12 | inactive: -6.26% |
| Cc1ccc(S(=O)(=O)NCCc2nnc3ccc(SCc4cccc(F)c4)nn23)cc1 | inactive: -14.7% |
| COc1ccc(-c2nc3ccccc3o2)cc1NC(=O)c1ccc(-c2ccc(C)c(Cl)c2)o1 | inactive: 4.71% |
| COc1ccc(CC(=O)Nc2c(C(=O)N3CCN(c4ccccc4F)CC3)oc3ccccc23)cc1OC | inactive: -26.4% |
| CCOc1ccc(OCC)c(Nc2nc3ccccc3n3nnnc23)c1 | inactive: -4.95% |
| Cc1ccc(Nc2c(-c3ccco3)nc3ccc(C)cn23)cc1 | inactive: -12.8% |
| CCN(C(=O)c1cc2c(=O)oc3ccccc3c2s1)c1cccc(C(F)(F)F)c1 | inactive: 11.4% |
| COc1ccc(NC(=O)CSC2=Nc3ccccc3C3=NC(Cc4ccccc4)C(=O)N23)cc1 (stereo not given) | inactive: -20.3% |
| O=C1C2=C(Nc3ccccc3SC2c2ccc(C(F)(F)F)cc2)c2ccccc21 (stereo not given) | inactive: -36.1% |
| O=C(CN1C=NS(=O)(=O)c2ccccc21)Nc1ccc(Br)cc1 | inactive: 10% |
| Cc1ccccc1CNC(=O)CCCn1ncn2c(cc3occc32)c1=O | inactive: -18.4% |
| Cc1cccc(-n2nnc(-c3nc(-c4cccs4)no3)c2N)c1C | inactive: -1.17% |
| COc1ccccc1Nc1ncc2c(n1)CCN(CC(C)C)C2 | inactive: -4.13% |
| COCCNC(=O)c1ccc2c(c1)NC(=O)C(CS(=O)(=O)Cc1ccc(F)cc1Cl)N2 (stereo not given) | inactive: -20.3% |
| COc1cccc(CNC(=O)c2ccc3oc(=O)n(Cc4ccccc4)c3c2)c1 | inactive: 8.48% |
| COc1ccc(NC(=O)c2c(NC(=O)c3cccc(C)c3)sc3c2CCC3)cc1 | inactive: 4.68% |
| Cc1ccc(CCNC(=O)C2COc3ccccc3C2)cc1 (stereo not given) | inactive: -14.7% |
| Oc1c(C(c2ccc(F)cc2)N2CCCC2)sc2nc(-c3ccco3)nn12 (stereo not given) | inactive: 17.9% |
| Cc1ccc(S(=O)(=O)c2cn(C)c3cc(N4CCOCC4)c(F)cc3c2=O)c(C)c1 | inactive: -8.72% |

| Structure (SMILES) | activation |
| --- | --- |
| COc1ccc(N2CCN(c3ncnc4c3nc3n4CCCCC3)CC2)cc1 | inactive: 12.6% |
| Cc1ccc(Cl)cc1-n1c(=O)c2sc3ccccc3c2n(CC(=O)NC2CCCC2)c1=O | inactive: -49.3% |
| O=C(Oc1ccccc1C(=O)O)c1ccccc1O | inactive: 7.59% |
| O=C(O)c1ccc(S(=O)(=O)N(Cl)Cl)cc1 | inactive: -4.74% |
| Cc1ccc2c(c1)-c1onc(C(=O)N3CCN(c4cc(C)ccc4C)CC3)c1CO2 | inactive: -12.7% |
| COc1ccccc1CNS(=O)(=O)c1c(C(=O)N2CCC(C)CC2)c(C)n(C)c1C | inactive: -16.4% |
| Cc1ccc(CCNC(=O)Cn2ncc3c([nH]c4ccccc43)c2=O)cc1 | inactive: -12.9% |
| Cc1cc(C)n(-c2nc3cc(Cl)ccc3nc2N2CCN(c3cccc(C)c3C)CC2)n1 | inactive: -11.1% |
| COc1ccc(C)cc1NC(=O)CSc1nc(=O)n(Cc2cccnc2)c2c1CCC2 | inactive: 5.72% |
| CCCCCN1C(C(=O)c2ccccc2)=C(NC(=O)c2ccc(OC)c(OC)c2)c2ccccc2S1(=O)=O | inactive: -1.22% |
| Clc1ccc(-c2ccc(CNCCSc3nnnn3-c3ccccc3)o2)cc1 | inactive: 1.31% |
| O=C(CCn1c(=O)c2cccn2c2ccc(F)cc21)NCCc1ccc(Cl)cc1 | inactive: -30.3% |
| COc1ccc(NC(=O)N2CCC(CN3CCCC3)CC2)c(OC)c1 | inactive: -6.51% |
| O=C(C1CCCN(S(=O)(=O)c2cccc3nonc23)C1)N1CCN(c2ccccc2F)CC1 (stereo not given) | inactive: 15.8% |
| COC(=O)c1ccccc1NC(=O)CSc1cc(-c2ccccc2)nc(C)n1 | inactive: -16.9% |
| COc1c(C)c2c(c(O)c1C/C=C(\C)CCC(=O)O)C(=O)OC2 | inactive: 6.56% |
| COc1ccc(C2(CNC(=O)C(=O)Nc3ccc(C)c(Cl)c3)CCCC2)cc1OC | inactive: -12.7% |
| CCN(CC)S(=O)(=O)c1nnc(NC(=O)COc2ccccc2)s1 | inactive: 1.36% |
| CC(=O)c1ccc(N2C(=O)N(Cc3ccc(F)cc3)c3ccccc3S2(=O)=O)cc1 | inactive: -6.38% |
